From PMC6919601, “Identification of Plasmodium dipeptidyl aminopeptidase allosteric inhibitors by high throughput screening” (PLoS ONE, 2019)
The whole screen tested about 110,000 compounds, of which about 230 (0.21%) showed an effect of 50% or more. The list shows a part of the results.

target: DPAP1 (Plasmodium falciparum, UniProt Q8IIJ9); assay: primary screen, percent inhibition; read by cleavage of a fluorogenic dipeptide substrate; higher = more effect of the substance; set-up: species or system P. falciparum D10 trophozoite lysates; single well
Sequence (Q8IIJ9 whole entry, looked up): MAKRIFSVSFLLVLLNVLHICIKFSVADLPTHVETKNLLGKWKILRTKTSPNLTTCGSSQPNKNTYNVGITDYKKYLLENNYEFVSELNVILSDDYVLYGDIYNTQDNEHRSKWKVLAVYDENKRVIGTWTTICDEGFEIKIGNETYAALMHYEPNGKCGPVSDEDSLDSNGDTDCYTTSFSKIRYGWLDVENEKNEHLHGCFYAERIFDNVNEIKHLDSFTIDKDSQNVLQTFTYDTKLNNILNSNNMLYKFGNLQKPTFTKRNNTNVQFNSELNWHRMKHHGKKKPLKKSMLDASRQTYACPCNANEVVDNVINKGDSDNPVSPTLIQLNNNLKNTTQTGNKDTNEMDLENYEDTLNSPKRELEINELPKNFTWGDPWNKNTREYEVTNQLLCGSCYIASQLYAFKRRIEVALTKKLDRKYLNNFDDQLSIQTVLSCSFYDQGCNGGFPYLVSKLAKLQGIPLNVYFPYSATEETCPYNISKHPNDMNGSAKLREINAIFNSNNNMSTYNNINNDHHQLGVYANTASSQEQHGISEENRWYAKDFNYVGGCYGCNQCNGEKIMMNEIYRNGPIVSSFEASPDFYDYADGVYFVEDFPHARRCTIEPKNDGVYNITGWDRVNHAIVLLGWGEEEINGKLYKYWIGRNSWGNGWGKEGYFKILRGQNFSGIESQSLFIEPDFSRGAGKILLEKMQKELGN
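Note: 30 min substrate incubation versus DMSO and 10 µM JCP410 controls.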

SMILES | % Inhibition @ 10 uM [%]
CCOC(=O)N1CCC(NC(=O)c2noc3c2COc2ccc(C)cc2-3)CC1 | -5.3
COc1ccc(N2C(=O)S/C(=C3\C(=O)Nc4ccccc43)C2=O)cc1 | -4.18
C=CCc1c(C)nc(-c2ccccc2)nc1Nc1ccc(OC)cc1 | -0.712
COc1ccc2oc(=O)c(-c3nnc(NC4CCCCC4)s3)cc2c1 | 2.89
CCCC(=O)NCCSCCNC(=O)CCC | 2.94
Cc1ccc(CN(CC(=O)Nc2cccc(Br)c2)S(=O)(=O)c2ccccc2)cc1 | 1.03
CC(=O)N(Cc1ccc2c(c1)OCO2)C1CC(=O)N(c2ccccc2)C1=O (stereo not shown) | 3.53
COc1ccc(-c2cc(C(F)(F)F)nc(NCc3cccnc3)n2)cc1OC | 4.79
Cc1ccc(SC(C)C(=O)N2CCC(C(N)=O)CC2)cc1 (stereo not shown) | -2.65
CCc1sc(N)[n+](C)c1-c1ccc(OC)cc1 | -3.45
Cn1nc(C(F)(F)F)cc1C(=O)NCc1ccc(F)cc1 | 3.68
Cc1ccc(Cl)cc1N(CC(=O)NC1CC2CCC1C2)S(=O)(=O)c1ccccc1 (stereo not shown) | -4.13
Cc1cc(O)nc(SCC(=O)N2CCC(C(N)=O)CC2)n1 | 5.49
COC(=O)c1c(N)sc(C(=O)N(C)C)c1C | 8.16
Cc1oc(-c2ccc(C(=O)N3CC(C)CC(C)C3)cc2)nc1COc1ccccc1 (stereo not shown) | 4.28
Cc1cc(C)cc(Oc2coc3c(CN4CCOCC4)c(O)ccc3c2=O)c1 | -2.87
Cc1ccccc1Cn1c(CN2CCN(C)CC2)nc2c1c(=O)n(C)c(=O)n2C | -8.06
CCOc1ccc(CCNC(=O)Cn2c(=O)cc(C(F)(F)F)c3c(C)nn(C)c32)cc1OCC | -0.12
O=C(CN(C1CCCCC1)S(=O)(=O)c1ccc(F)cc1)Nc1ccc(Cl)cc1 | 2.27
CC(O)Cn1c2ccccc2c2cc(Cl)ccc21 (stereo not shown) | 0.132
CCCSc1nnc(NC(=O)c2sc(C)nc2C)s1 | 0.758
O=C(Nc1ccc2c(c1)C(=O)OC2)NC1CCCCC1 | 2.38
CCOC(=O)C1=C(C)NC(=O)NC1c1c(F)cccc1Cl (stereo not shown) | -4.75
O=C(CNC(=S)N(Cc1ccc(F)cc1)C1CCCCC1)NC1CC1 | 2.9
Cc1[nH]c2ccccc2c1C(=O)CN1CCCCC1 | 2.62
CC1=C(c2ccc(C)cc2)S(=O)(=O)N=C1NC(C)CCc1ccccc1 (stereo not shown) | 5.42
O=C(O)/C=C\C(=O)Nc1ccc(Cl)c([N+](=O)[O-])c1 | -0.807
COc1ccc(-c2csc(/C(C#N)=C/c3ccccc3Cl)n2)cc1 | 4.12
